# Measured values reported in a collection of fitness landscapes (doi:10.1126/science.1257360).
# The other results are listed elsewhere or left out.
# B1: PhoQ; a variant is named by its letters at X, in order, P23837 (parent)
# chain: MKKLLRLFFPLSLRVRFLLATAAVVLVLSLAYGMVALIGYSVSFDKTTFRLLRGESNLFYTLAKWENNKLHVELPENIDKQSPTMTLIYDENGQLLWAQRDVPWLMKMIQPDWLKSNGFHEIEADVNDTSLLLSGDHSIQQQLQEVREDDDDAEMTHSVAVNVYPATSRMPKLTIVVVDTIPVELKSSYMVWSWFIYVLSANLLLVIPLLWVAAWWSLRPIEALAKEVRELEEHNRELLNPATTRELTSLVRNLNRLLKSERERYDKYRTTLTDLTHSLKTPLXXLQXXLRSLRSEKMSVSDAEPVMLEQISRISQQIGYYLHRASMRGGTLLSRELHPVAPLLDNLTSALNKVYQRKGVNISLDISPEISFVGEQNDFVEVMGNVLDNACKYCLEFVEISARQTDEHLYIVVEDDGPGIPLSKREVIFDRGQRVDTLRPGQGVGLAVAREITEQYEGKIVAGESMLGGARMEVIFGRQHSAPKDE
# Variants of: B1
# Assay: enrichment ratio after two sorts for PhoP signalling (ratio (wild type AVST 3.29)); higher = more functional
# Conditions: with PhoP (E. coli)
row,Variant,enrichment ratio
1,MTNS,≤ 0.25
2,VSYN,≤ 0.25
3,ESPE,≤ 0.25
4,GKFK,≤ 0.25
5,GMHF,≤ 0.25
6,IDTQ,≤ 0.25
7,KEQI,≤ 0.25
8,WYKS,≤ 0.25
9,IDGP,≤ 0.25
10,EQSG,≤ 0.25
11,WLGN,≤ 0.25
12,KFDV,≤ 0.25
13,LWRR,≤ 0.25
14,PYWV,≤ 0.25
15,SIDK,≤ 0.25
16,GSKT,≤ 0.25
17,LYGW,≤ 0.25
18,SWHQ,≤ 0.25
19,VFYY,≤ 0.25
20,RPHK,≤ 0.25
21,MGTS,≤ 0.25
22,LMYP,≤ 0.25
23,VNCC,0.513
24,RGLK,≤ 0.25

row,Variant,enrichment ratio
1,WHVY,≤ 0.25
2,WNRW,≤ 0.25
3,KLPW,≤ 0.25
4,LDGC,≤ 0.25
5,LMLV,≤ 0.25
6,APSE,≤ 0.25
7,QGCF,≤ 0.25
8,EYQY,≤ 0.25
9,VMDG,≤ 0.25
10,LKYN,≤ 0.25
11,TEVM,10.6
12,LAKK,≤ 0.25
13,QAWW,≤ 0.25
14,LGRN,≤ 0.25
15,TPEL,≤ 0.25
16,FTYW,≤ 0.25
17,RSYT,≤ 0.25
18,FQFP,≤ 0.25
19,THSA,8.45
20,HNQH,≤ 0.25
21,SRLG,≤ 0.25
22,QHFQ,≤ 0.25
23,FANY,≤ 0.25
24,PQEC,≤ 0.25

row,Variant,enrichment ratio
1,FDRY,≤ 0.25
2,HSPG,≤ 0.25
3,IFTH,≤ 0.25
4,YEAY,≤ 0.25
5,NCRL,≤ 0.25
6,YMAP,≤ 0.25
7,IGIC,≤ 0.25
8,VNKG,≤ 0.25
9,IFEC,≤ 0.25
10,TTFP,≤ 0.25
11,YVIC,≤ 0.25
12,KALK,≤ 0.25
13,YAGW,≤ 0.25
14,IEDR,≤ 0.25
15,IQRI,≤ 0.25
16,YLFR,≤ 0.25
17,QGFS,4.45
18,FMHN,≤ 0.25
19,GGNH,≤ 0.25
20,YLER,≤ 0.25
21,VLHF,≤ 0.25
22,VQVV,≤ 0.25
23,GMNC,≤ 0.25
24,MNDQ,≤ 0.25

row,Variant,enrichment ratio
1,SFPW,≤ 0.25
2,RAAI,≤ 0.25
3,TITA,3.34
4,GWPN,≤ 0.25
5,KCFQ,≤ 0.25
6,IYHF,≤ 0.25
7,VQTT,≤ 0.25
8,SIVA,5.06
9,SPFW,≤ 0.25
10,LYSH,≤ 0.25
11,RSKV,≤ 0.25
12,TDKI,≤ 0.25
13,HGAN,≤ 0.25
14,CLFM,≤ 0.25
15,PNQV,≤ 0.25
16,MSAH,1.79
17,FFGP,≤ 0.25
18,NGGW,≤ 0.25
19,VCCT,≤ 0.25
20,HKCF,≤ 0.25
21,WTPA,≤ 0.25
22,FVYV,≤ 0.25
23,NKDH,≤ 0.25
24,MVVQ,≤ 0.25

row,Variant,enrichment ratio
1,GLQP,≤ 0.25
2,SINW,≤ 0.25
3,ANAH,1.65
4,RDVW,≤ 0.25
5,EFPP,≤ 0.25
6,DTRW,≤ 0.25
7,PSPR,≤ 0.25
8,SHCR,≤ 0.25
9,FRPG,≤ 0.25
10,KLHT,≤ 0.25
11,RVQK,≤ 0.25
12,DVRI,≤ 0.25
13,IGMI,3.17
14,NYWG,≤ 0.25
15,STMW,9.94
16,KLII,≤ 0.25
17,GCIW,≤ 0.25
18,VSWW,≤ 0.25
19,SDMH,3.34
20,LESK,≤ 0.25
21,YEKQ,≤ 0.25
22,KPIQ,≤ 0.25
23,WVPY,≤ 0.25
24,NASI,≤ 0.25

row,Variant,enrichment ratio
1,WFGS,≤ 0.25
2,GFKE,≤ 0.25
3,LRVQ,≤ 0.25
4,MSRA,≤ 0.25
5,QITG,≤ 0.25
6,KYKD,≤ 0.25
7,DAVG,≤ 0.25
8,TGCK,37.2
9,SLLF,0.885
10,LPEL,≤ 0.25
11,MSDT,≤ 0.25
12,IPGS,≤ 0.25
13,NRIR,≤ 0.25
14,KTCI,≤ 0.25
15,HKVE,≤ 0.25
16,MLTE,≤ 0.25
17,MGHM,5.76
18,FGSW,≤ 0.25
19,FGTN,≤ 0.25
20,NFWN,≤ 0.25
21,PEQK,≤ 0.25
22,GIHV,≤ 0.25
23,TEKS,≤ 0.25
24,NSVF,≤ 0.25

row,Variant,enrichment ratio
1,FHKQ,≤ 0.25
2,MITN,≤ 0.25
3,ATIW,≤ 0.25
4,SYFP,≤ 0.25
5,IRIK,≤ 0.25
6,LDPP,≤ 0.25
7,NPLR,≤ 0.25
8,WSSE,≤ 0.25
9,AWKP,≤ 0.25
10,QLWV,≤ 0.25
11,LRNM,≤ 0.25
12,CPHF,≤ 0.25
13,GMTE,≤ 0.25
14,KTSF,≤ 0.25
15,QVPP,≤ 0.25
16,NEHP,≤ 0.25
17,AKTW,≤ 0.25
18,VRPM,≤ 0.25
19,VNNE,≤ 0.25
20,IWLG,≤ 0.25
21,EGVY,≤ 0.25
22,TDHY,≤ 0.25
23,DFLT,≤ 0.25
24,DFET,≤ 0.25

row,Variant,enrichment ratio
1,VMFL,≤ 0.25
2,LEGA,≤ 0.25
3,IFLV,≤ 0.25
4,NKTW,≤ 0.25
5,KNRT,≤ 0.25
6,KYPT,≤ 0.25
7,FSGM,≤ 0.25
8,WMFM,≤ 0.25
9,TIDM,≤ 0.25
10,DLFK,≤ 0.25
11,ADCY,≤ 0.25
12,RRWP,≤ 0.25
13,KCNF,≤ 0.25
14,MEGF,≤ 0.25
15,YDCR,≤ 0.25
16,EIYH,≤ 0.25
17,IQQD,≤ 0.25
18,HESV,≤ 0.25
19,DHVH,≤ 0.25
20,TSYI,6.42
21,RAGD,≤ 0.25
22,LLSH,≤ 0.25
23,FMFC,≤ 0.25
24,IGLE,≤ 0.25

row,Variant,enrichment ratio
1,AKQI,≤ 0.25
2,VTKP,≤ 0.25
3,LLCQ,≤ 0.25
4,PMLG,≤ 0.25
5,VCGP,≤ 0.25
6,QRLE,≤ 0.25
7,NMAM,≤ 0.25
8,LSPY,≤ 0.25
9,IIRI,≤ 0.25
10,HYRS,≤ 0.25
11,ETSK,≤ 0.25
12,YEYP,≤ 0.25
13,RGHL,0.34
14,VRAQ,≤ 0.25
15,HELW,≤ 0.25
16,WYRW,≤ 0.25
17,YHRW,≤ 0.25
18,FGET,≤ 0.25
19,LQQH,≤ 0.25
20,RVRA,0.896
21,ACTH,2.87
22,RHRR,≤ 0.25
23,VEVF,≤ 0.25
24,QMAQ,≤ 0.25

row,Variant,enrichment ratio
1,EAFQ,≤ 0.25
2,LMQM,≤ 0.25
3,RGHM,≤ 0.25
4,TDSI,8.92
5,EFLA,≤ 0.25
6,IMEP,≤ 0.25
7,QWRP,≤ 0.25
8,IEIH,≤ 0.25
9,SKVV,8.67
10,QWRM,≤ 0.25
11,IGLT,≤ 0.25
12,KSVF,≤ 0.25
13,PAVL,≤ 0.25
14,HPEP,≤ 0.25
15,HDID,≤ 0.25
16,AKRV,≤ 0.25
17,TKCY,6.97
18,EQKS,≤ 0.25
19,HKKS,≤ 0.25
20,VHML,≤ 0.25
21,PECH,≤ 0.25
22,LIDS,≤ 0.25
23,HMAA,≤ 0.25
24,FIVI,0.833

row,Variant,enrichment ratio
1,VRDY,≤ 0.25
2,AIDF,≤ 0.25
3,SLDV,≤ 0.25
4,SFHS,≤ 0.25
5,DYGQ,≤ 0.25
6,YMPC,≤ 0.25
7,NTLE,≤ 0.25
8,HFND,≤ 0.25
9,SEPR,≤ 0.25
10,TNWI,≤ 0.25
11,DMWF,≤ 0.25
12,MCRG,≤ 0.25
13,PVWR,≤ 0.25
14,NSDY,≤ 0.25
15,ISHP,≤ 0.25
16,IMWN,≤ 0.25
17,WIFW,≤ 0.25
18,PVGE,≤ 0.25
19,NTQN,≤ 0.25
20,NKFS,≤ 0.25
21,RIYL,≤ 0.25
22,QIFK,≤ 0.25
23,KCQP,≤ 0.25
24,SGCS,6.16

row,Variant,enrichment ratio
1,HWSS,≤ 0.25
2,ISII,≤ 0.25
3,TKKL,1.46
4,WRNV,≤ 0.25
5,SWIR,≤ 0.25
6,MDCH,≤ 0.25
7,MQLE,2.79
8,SSTR,≤ 0.25
9,RTCH,≤ 0.25
10,ILWY,≤ 0.25
11,TCWV,2.38
12,IQCD,≤ 0.25
13,DCRS,≤ 0.25
14,DLSY,≤ 0.25
15,HRTD,≤ 0.25
16,DLCQ,≤ 0.25
17,DYGK,≤ 0.25
18,GTRA,≤ 0.25
19,ISGA,≤ 0.25
20,APTR,≤ 0.25
21,EMIH,≤ 0.25
22,TSIQ,≤ 0.25
23,KEDN,≤ 0.25
24,PECF,≤ 0.25

row,Variant,enrichment ratio
1,NKLF,1.02
2,TAFC,≤ 0.25
3,IILS,≤ 0.25
4,PDWF,≤ 0.25
5,QRCM,≤ 0.25
6,NSNT,≤ 0.25
7,YRST,≤ 0.25
8,SKMW,≤ 0.25
9,RYQV,≤ 0.25
10,WPFG,≤ 0.25
11,MYQC,≤ 0.25
12,MFAF,≤ 0.25
13,FEQG,≤ 0.25
14,FAWY,≤ 0.25
15,YVKP,≤ 0.25
16,FEAH,≤ 0.25
17,FPLG,≤ 0.25
18,RIEL,≤ 0.25
